The structures appear in SMILES notation. In all, about 52,000 compounds went through this assay and about 4,300 (8.3%) were called active. Cut-off read from the data, not from the text of the source: active = survival mostly below about 52% (no sharp cut-off); inactive = mostly above about 56%. The list shows a part of the results.

Results on 89 compounds are retold here after PubChem BioAssay AID463173 (ICCB-Longwood Screening Facility, Harvard Medical School, 2010).

The test system of the assay is DeltatarO mutant. Nature of the assay: S. aureus survival, RN4220 and DeltatarO strains – OD600, teichoic acid synthesis inhibitors, primary screen (AID 463173). Particulars: S. aureus RN4220 wild type/DeltatarO growth, OD600, 18 h, hits give low values, screened at 18.75 µg/mL (by protocol).
Turning to `O=C(NCC(c1cccnc1)N1CCN(Cc2ccccc2)CC1)C(=O)Nc1cccc(F)c1` (centres undefined), the survival is inactive: 105%.

For the compound `CCCCc1nn2c(=O)cc(COC(=O)c3cccc(NC(=O)c4cccs4)c3)nc2s1`, the survival is inactive: 62%.

In the case of `CS(=O)(=O)N(CCc1ccccc1)CC(=O)N1CCCC1`, the survival is inactive: 100%.

In the case of `CC(=O)Nc1ccc(NC(=O)c2csnn2)cc1`, the survival is inactive: 78%.

Turning to `COCCN1C(=O)N(c2cccc(OC)c2)C(=O)C1CC(=O)Nc1ccccc1` (centres undefined), the survival was inactive: 139%.

Turning to `O=C(NCc1ccc(Cl)cc1)C(=O)NCC(c1ccc2c(c1)OCO2)N1CCOCC1` (centres undefined), the survival is inactive: 98%.

Regarding `COc1cc2ccccc2cc1C(=O)N1CCN(c2nc3c(F)cccc3s2)CC1`, the survival was inactive: 92%.

Take `Cc1cc(C)n2c(Nc3ccc4c(c3)OCCO4)c(-c3ccccc3)nc2n1`: the survival was inactive: 117%.

For the compound `CCS(=O)(=O)N1CC(=O)N(c2cc(C)cc(C)c2)C(C)(C(=O)NC2CCCCC2)C1` (centres undefined), the survival is inactive: 92%.

Regarding `COc1ccc(N2CCN(CCCNC(=O)c3nnc(Cc4ccccc4Cl)o3)CC2)cc1`, the survival is inactive: 85%.

With `CC(=O)c1ccc(NC(=O)CSc2nnc(-c3ccncc3)n2-c2ccccc2)cc1`, the survival is inactive: 75%.

With `Cc1ccc(S(=O)(=O)c2[nH]c(-c3ccccc3)nc2SC(C)C(=O)O)cc1` (centres undefined), the survival was inactive: 77%.

As to `O=C(c1ccccc1)N1CCC(c2nc3ccccc3o2)CC1`, the survival was inactive: 105%.

In the case of `CC(=O)c1ccc(NC(=O)c2cc3c([nH]c2=O)CC(c2ccccc2)CC3=O)cc1` (centres undefined), the survival is inactive: 63%.

As to `CCOc1ccc2c(c1)c(=O)c(C(=O)c1ccccc1)cn2Cc1ccccc1F`, the survival was inactive: 83%.

For `COc1ccc(CCNC(=O)c2cnn(-c3cccc(C)c3)c2C2CCNCC2)cc1OC`, the survival was inactive: 84%.

As for `CN1C(=O)Cc2cc(S(=O)(=O)CCC(=O)Nc3ccc(Cl)cc3)ccc21`, the survival is inactive: 94%.

Regarding `Cc1cc(F)ccc1NC(=O)CCS(=O)(=O)c1cc2c3c(c1)CCN3C(=O)CC2`, the survival is inactive: 101%.

As to `COc1ccc(OC)c(CNS(=O)(=O)c2cc(-c3onc(C)c3C)ccc2C)c1`, the survival is inactive: 76%.

As for `Cc1ccn2c(=O)cc(COc3ccc(NC(=O)C(C)(C)C)cc3)nc2c1`, the survival was inactive: 94%.

In the case of `Cc1ccc2c(c1)N(C(=O)Nc1ccc(Br)cc1F)CCO2`, the survival was inactive: 84%.

As for `COC(=O)c1ccccc1NC(=O)CSc1n[nH]c(C)n1`, the survival is inactive: 62%.

Turning to `O=c1c2sc3ccccc3c2n(Cc2cccc(C(F)(F)F)c2)c(=O)n1-c1ccccc1`, the survival is inactive: 73%.

Take `O=C1CSC(=O)N1CNc1cc(Cl)ccc1Cl`: the survival was inactive: 71%.

Turning to `CC(C)Oc1ccc(CNC(=O)CN2C(=O)c3cccnc3Oc3ccc(Cl)cc32)cc1`, the survival is inactive: 113%.

Regarding `CCS(=O)(=O)N1CCc2cc(C(=O)NC(C)c3ccccc3)ccc21` (centres undefined), the survival is inactive: 79%.

With `FC(F)(F)c1cccc(N2CCN(c3nc4ccccc4n4cnnc34)CC2)c1`, the survival was active: 25%.

Regarding `COc1ccc(-n2c(SC)nc3sc4c(c3c2=O)CCN(C(C)=O)C4)cc1`, the survival is inactive: 127%.

As for `Cc1ccc(NC(=O)CSc2nnc(-c3cc4occc4n3C)n2-c2ccccc2C)c(C)c1`, the survival was inactive: 88%.

With `COc1ccc(CNC(=O)C2CCN(C(=O)c3cnn(-c4ccccc4)c3-n3cccc3)CC2)cc1`, the survival is inactive: 78%.

As to `CCNC(=O)CC1C(=O)N(c2ccc(F)cc2)C(=O)N1Cc1ccc(OC)c(OC)c1` (centres undefined), the survival was inactive: 97%.

As to `Cc1ccc(C(=O)N2CCN(c3cccc(Cl)c3)CC2)cc1-n1c(C)nc2cccnc21`, the survival is inactive: 70%.

Take `CCc1ccccc1N(CC)C(=O)C(=O)Nc1ccc2nc3n(c(=O)c2c1)CCCCC3`: the survival is inactive: 69%.

With `O=C(c1ccc2c(c1)N(Cc1cccc(Cl)c1)C(=O)c1ccccc1S2(=O)=O)N1CCc2ccccc21`, the survival was active: 0%.

For `COc1cc(Cl)c(C)cc1NC(=O)C1CCCN(c2ncnc3onc(-c4ccc(F)cc4)c23)C1` (centres undefined), the survival is inactive: 72%.

Turning to `COc1ccc(S(=O)(=O)c2cc3cc(C(C)(C)C)cc(O)c3oc2=O)cc1`, the survival is active: 26%.

On to `Cn1c(COc2ccccc2C(C)(C)C)nc2ccccc21`, for which the survival was active: 5%.

As to `Cn1c2c(c(=O)n(C)c1=O)C(c1ccccc1C(F)(F)F)CC(=O)N2` (centres undefined), the survival is inactive: 98%.

As to `CCOC(=O)c1ccc(CN(Cc2ccc(F)cc2)S(=O)(=O)c2ccc(F)c(C(=O)Nc3ccccc3C(F)(F)F)c2)cc1`, the survival was inactive: 73%.

Consider `COC(=O)c1ccc(NS(=O)(=O)c2ccc3c(c2)n(C)c(=O)c(=O)n3C)cc1`, for which the survival was inactive: 79%.

Regarding `N#Cc1c(-n2ncnc2-c2cccc(Cl)c2)sc2c1CCCCC2`, the survival was inactive: 61%.

In the case of `CCOc1cccc(-c2nc3ccccc3c(=O)o2)c1`, the survival is active: 35%.

Consider `CCOC(=O)C1=C(CN(CC)Cc2ccccc2)NC(=O)NC1c1ccc(OC)cc1` (centres undefined), for which the survival was inactive: 65%.

Regarding `COC(=O)c1c(-c2ccc(Cl)cc2)noc1N1CCN(c2ccccc2F)CC1`, the survival is inactive: 47%.

Turning to `CCCCNC(=O)c1ccc2c(c1)NC(=O)C(C(C)C)N2` (centres undefined), the survival is inactive: 133%.

As to `COc1ccc2c(c1)c1c(c(=O)n(-c3ccc(F)c(Cl)c3)c(=O)n1Cc1ccccc1F)n2C`, the survival was inactive: 99%.

As for `Cc1cccc(CCn2c(=O)c3ccccc3n(Cc3ccccc3C)c2=O)c1`, the survival was inactive: 72%.

In the case of `COc1cccc(NC(=O)CN2C=NS(=O)(=O)c3ccccc32)c1`, the survival was inactive: 122%.

Consider `Cc1ccc(C(=O)c2sc(Nc3ccc(F)cc3)c(C#N)c2N)cc1`, for which the survival was inactive: 63%.

Consider `COc1cccc(-c2nc3c(c(SCC(=O)Nc4cccc(C)c4C)n2)Cc2c(CO)cnc(C)c2O3)c1`, for which the survival was inactive: 118%.

As for `CCOc1ccccc1NC(=O)N1CC(C)Oc2ccc(Cl)cc21` (centres undefined), the survival was inactive: 54%.

For the compound `CCOC(=O)c1cnc(NCc2ccc(OC)cc2OC)c2ccccc12`, the survival was inactive: 86%.

As to `Cc1ccc(OC(=O)CSc2nnc(-c3ccc4c(c3)OCO4)o2)c(C)c1`, the survival was inactive: 63%.

For the compound `COc1ccc2c(c1)c1c(c(=O)n(Cc3ccccc3)c(=O)n1CC(=O)Nc1ccccc1F)n2C`, the survival is inactive: 109%.

For `Cc1cccn2c(=O)cc(COc3ccc(NC(=O)COc4ccc(F)cc4)cc3)nc12`, the survival is inactive: 89%.

For the compound `CC(C)CC(O)(CC(C)C)C(=O)NNc1ccccc1`, the survival was inactive: 75%.

As for `Cc1cc(C)c2oc(C(=O)NCCc3ccc(S(N)(=O)=O)cc3)cc(=O)c2c1`, the survival is inactive: 63%.

For `CC(C)(C)c1ccc(C(=O)NC2=NC(c3cccc(F)c3)CC(=O)N2)cc1` (centres undefined), the survival is inactive: 52%.

As to `O=C1CC(c2ccccc2)Cc2[nH]c(=O)c(-c3nc(-c4ccc(Cl)c(Cl)c4)cs3)cc21` (centres undefined), the survival was inactive: 94%.

In the case of `COc1ccc(Cl)cc1NC(=O)C(=O)NCc1ccc(Cl)cc1`, the survival was inactive: 150%.

Take `CCOC(=O)Cc1nn(CC)c(=O)c2ccccc12`: the survival was inactive: 76%.

For `O=C(CNS(=O)(=O)c1ccc(Br)s1)N1CCN(c2ccc(F)cc2)CC1`, the survival is active: 27%.

As for `CCS(=O)(=O)NCCc1sc2nc(-c3ccc(OC)cc3)nn2c1C`, the survival is inactive: 72%.

As to `Cc1ccc(NC(=O)N2CCN(C(=O)c3nsc4ccccc34)CC2)cc1C`, the survival was active: -5%.

As to `COCCNS(=O)(=O)c1cc(-c2nn3c(C)nnc3c3ccccc23)ccc1C`, the survival was inactive: 64%.

Take `CCCCN(CC)CCNC(=O)Cn1cnc2sc(C)c(S(=O)(=O)N3CCN(c4ccccc4OC)CC3)c2c1=O`: the survival is inactive: 84%.

Turning to `CCOc1ccc2nc(N3CCCC(C(=O)NCCc4ccc(OC)cc4OC)C3)sc2c1` (centres undefined), the survival was inactive: 62%.

Consider `CCOc1ccc(N2CC(c3nc4ccccc4n3CCOc3ccc(OC)cc3)CC2=O)cc1` (centres undefined), for which the survival was active: 47%.

Turning to `Cc1cc2nc(-c3ccc(NC(=O)c4ccc(OCC(C)C)cc4)cc3)oc2cc1C`, the survival is inactive: 78%.

As to `O=C(Nc1ccc(F)c(Cl)c1)c1cc(S(=O)(=O)NCc2ccc3c(c2)OCO3)ccc1F`, the survival was inactive: 122%.

For `CNC(=O)C1CCCN(c2nnc(C)c3c(C)n(-c4ccccc4)nc23)C1` (centres undefined), the survival was inactive: 84%.

For `NC(=O)c1cc(N)ccc1N1CCCC1`, the survival was inactive: 84%.

For the compound `COc1ccc(-c2nc3sc(CCNC(=O)C(C)(C)C)c(C)n3n2)cc1`, the survival is inactive: 89%.

For the compound `O=C(O)CCc1ccc(-c2ccc(Br)cc2)n1-c1ccccc1O`, the survival is inactive: 64%.

`CCOC(=O)C1CCN(c2cc3c(cc2NC(=O)c2ccccc2Cl)n(C)c(=O)n3C)CC1`: the survival is inactive: 76%.

Consider `CC1CCC2(CC1)Nc1ccccc1S2` (centres undefined), for which the survival was inactive: 105%.

As to `Cc1c(NC(=O)Nc2cccc(C(F)(F)F)c2)sc2nc3n(c(=O)c12)CCC(C)CC3` (centres undefined), the survival was inactive: 94%.

On to `COc1ccc(/C=C/c2nc(C#N)c(N3CCC(C(N)=O)CC3)o2)cc1OC`, for which the survival was inactive: 117%.

With `Cc1ccc(-c2nc(CS(=O)(=O)CC(=O)NC(C)CCc3ccccc3)c(C)o2)cc1` (centres undefined), the survival is inactive: 63%.

As to `CC(C)CN(c1ccccc1)S(=O)(=O)c1nnc(NC(=O)C2CCCCC2)s1`, the survival was inactive: 51%.

With `O=C(NCCO)C(=O)NCC(c1ccc2c(c1)OCO2)N1CCOCC1` (centres undefined), the survival was inactive: 75%.

As for `O=C(CCS(=O)(=O)c1ccccc1)N(Cc1cccnc1)c1nc2c(F)cccc2s1`, the survival is inactive: 83%.

As for `COc1ccc(C(CC(=O)Nc2ccccn2)N2Cc3ccccc3C2=O)cc1OC` (centres undefined), the survival is inactive: 102%.

On to `CCOC(=O)c1nnc2c(-c3ccc(Cl)cc3)c(C)nn2c1N`, for which the survival was inactive: 78%.

Regarding `CCc1ccccc1NC(=O)Cn1nnc(C(=O)NCc2ccco2)c1N`, the survival is inactive: 93%.

For `CC(NC(=O)CCc1cn(Cc2ccccc2Cl)c2ccccc12)c1ccccc1` (centres undefined), the survival is inactive: 58%.

Consider `O=C(NCCc1ccccc1)c1ccc(CSc2nc3cccnc3n2Cc2ccccc2)cc1`, for which the survival was inactive: 94%.

For `Cc1cc2c(cc1S(=O)(=O)CCC(=O)N1CCN(c3ccccc3)CC1)OCC(=O)N2`, the survival is inactive: 89%.

With `CCCCCOC(=O)CSc1nc2sc3c(c2c(=O)n1Cc1ccccc1)CC(C)(CC)OC3` (centres undefined), the survival is active: 46%.
